# According to article PMC12136788:
# The other results are listed elsewhere or left out.
# B1: chr11:134247321:134247422:+|3pUTR|ENSG00000151502|unk|FALSE|unique (ssRNA)
# RNA: GGGAGUUCUACAGUCCGACGAUCCCUUUUCAGAGCAUGAGGUCAGGCUCUGUAUCCCUCCUUUUCCUAGCUGAUAUUCUAACUAGAAGCAUUUGUCAAUUCCUUUGCCUCCCAACUGACAACACACGUUCAUUUUCCAACCUUCAACAGAGGAUUGAGCAUCA
# B2: ENSG00000070961:be:win_6351|3pUTR|ENSG00000070961|bound_else_gene|NA|bound_elsewhere_windowed (ssRNA)
# RNA: GGGAGUUCUACAGUCCGACGAUCCAGAUGUCAGUUUUGAACCAAGAAUUGGUGAUUUGUUUAUAAGAAAAAAACUGGCUUCAUUUCUGUGAAAUUGCUCUUUGAAAAUUUCUUUUUACACGUGUAAGCCAACUGAGAUACCGUCAACAGAGGAUUGAGCAUCA
# B3: chr5:172042892:172042993:-|3pUTR|ENSG00000072786|msi1|FALSE|unique (ssRNA)
# RNA: GGGAGUUCUACAGUCCGACGAUCGAUUCUCCCGCUUCAACCUUGAGUAGCUGGGACGACAGAUACAUGCUACUGCACCCAGCUAGGUUAAGGUUCUGUAUACUCUGUCUUUCUAAAGCAAUUCCCUGGAAAUUUUCUCAACAUCAACAGAGGAUUGAGCAUCA
# B4: ENSG00000070961:be:win_2051|CDS|ENSG00000070961|bound_else_gene|NA|bound_elsewhere_windowed (ssRNA)
# RNA: GGGAGUUCUACAGUCCGACGAUCAUCCUGUGAGACCUGAGGUGCCAGAUGCAAUUAAAAAGUGUCAGAGGGCUGGAAUUACUGUGCGGAUGGUCACUGGUGAUAAUAUUAAUACUGCUCGGGCCAUUGCUACCAAAUGUGGUACAACAGAGGAUUGAGCAUCA
# B5: chr20:1470740:1471132:-|three_prime_utr|ENSG00000196209|control|control|control (ssRNA)
# RNA: GGGAGUUCUACAGUCCGACGAUCUCAGUUCUUGUCUGCUUGGAAGAAAGAUUUCAGCCAAGAGACACACAGCAAAGGUGAAGUAGCAGAGUUUAUUGAAGAAAGAUAAAGUACGUUCCUAGAAAGGAGUGGGCUGACCUGGCUCAACAGAGGAUUGAGCAUCA
# B6: ENSG00000052841:stop:overlap|stop_codon|ENSG00000052841|stop_codon|NA|stop_codon (ssRNA)
# RNA: GGGAGUUCUACAGUCCGACGAUCAGAACCGAAUCCAGACCAUCCAGUGUCACUUAAUGCUGAAGAAGGGACGGCGCUCUCCUUAGUGCACUUCUUCCUUCUCUCUUUCUCUUUACUCAUGCUCUAAAAAAAAAGAAUAAGAAACAACAGAGGAUUGAGCAUCA
# B7: chr3:168010103:168010202:-|3pUTR|ENSG00000173905|msi1_unk|FALSE|overlapping (ssRNA)
# RNA: GGGAGUUCUACAGUCCGACGAUCGCUCAAACAUAAAUCUGCCUACUGAACUCUAGGAUAUUUAAUUACAAAAAUUAAGAACUUAGACUUUUUUAAAACUUUUGUAUUAGAAAUGCGCAUACAUUUAUAUGAAUAUAUUUUGAUCAACAGAGGAUUGAGCAUCA
# B8: chr15:69268886:69268987:+|CDS|ENSG00000138604|unk|FALSE|bound_elsewhere (ssRNA)
# RNA: GGGAGUUCUACAGUCCGACGAUCGGAGUUAAAGCUGUGUUUAUGAAUAAACAUGACUGGUAUGAAGAAUAUCCAACCACACCUAGCUCUUUUGUUUUAAAUGGCUUUAUGUAUUCUUUAAUUGGGCUGUAUGACUUAAAAGAACAACAGAGGAUUGAGCAUCA
# B9: chr4:150265445:150265561:-|3pUTR|ENSG00000198589|unk|total|mutant (ssRNA)
# RNA: GGGAGUUCUACAGUCCGACGAUCGGAUCCGCAAAGCAGAAAACUGGCUGCUGGGUUCUGCCGUUUUAAAAAAUCUAUAUUUUCCGUCAUAAUGAGAAGUCUAUUUUCACCAAUUAUGGAAACAUACAGUGGAGCAAGUAAACCCAACAGAGGAUUGAGCAUCA
# B10: ENSG00000107863:be:win_5701|CDS|ENSG00000107863|bound_else_gene|NA|bound_elsewhere_windowed (ssRNA)
# RNA: GGGAGUUCUACAGUCCGACGAUCAGCACCUUGGCUUCAACAAACAGGCCCCUUCUUUCCAUACCACCACAGUCACCUGACCAAAUAAACGGAGAAAGCUUCCAGAACGUGAGCAAAAAUGCUAGUUCUGCAGCGAAUGCCCAACAACAGAGGAUUGAGCAUCA
# B11: chr2:176131361:176131462:+|CDS|ENSG00000175879|unk|total|mutant (ssRNA)
# RNA: GGGAGUUCUACAGUCCGACGAUCGGAAUUUCUUUUUAACCCCUAUCUGACCAGGAAAAGAAGAAUCGAGGUUUCCCACGCCCCCGCCCUCACCGAGAGACAGGUAAAAAUCUGGUUCCAGAACAGGAGAAUGAAAUGGAAAAACAACAGAGGAUUGAGCAUCA
# B12: chr3:107805913:107806014:+|3pUTR|ENSG00000114439|msi1_unk|FALSE|overlapping (ssRNA)
# RNA: GGGAGUUCUACAGUCCGACGAUCUACAUGGAGAUUUAAGUUUAAGAUGGUUUAUAUAAUAGGUUAUACCUACAUUUAUAUUGUAGAAUAAAUAUUAAAAAGCCUGUUCCAGAGACUCCCAAGCAGCCUGGGCAGGCAGAUGUACAACAGAGGAUUGAGCAUCA
# B13: chr2:171983412:171983537:+|3pUTR|ENSG00000128708|unk|total|mutant (ssRNA)
# RNA: GGGAGUUCUACAGUCCGACGAUCUGAUGACUUUAAUUUUAAAAUCUUGUGACAUUUUGCUUAUACUAAAAGUUAUCUAUCUUCCGUUGAAUAUUUUCUUUUGGAGAGAUUGUAUAUUUUAAAAUACUGUUCCGAGUUUAUGAGCAACAGAGGAUUGAGCAUCA
# B14: chr1:67003359:67003460:-|3pUTR|ENSG00000116704|msi1|total|mutant (ssRNA)
# RNA: GGGAGUUCUACAGUCCGACGAUCACUCAAAAGCCGCAAAUCUGUAAAUUGGAUUAAGAACACCUGCCCUACCUACCCGGCAACCGUGUGAAUCCAAAUGCUGCAAUGUGAGAUGAGGUACAAGUAAAGAGCUGUGUUUUGUAACAACAGAGGAUUGAGCAUCA
# B15: chr1:117368288:117368465:+|CDS|ENSG00000198162|unk|FALSE|unique (ssRNA)
# RNA: GGGAGUUCUACAGUCCGACGAUCUUUUGGGGCAUUCUUUUUCCUUCCAGACUCUUCAAAACACAAACGCUUUGAUUUGGGUUUAGAAGAUGUGUUAAUUCCACAUGUAGAUGCCGGUAAAGGGGCUAAAAACCCCGGAGUCUUCAACAGAGGAUUGAGCAUCA
# B16: chr1:52911722:52912021:-|three_prime_utr|ENSG00000121310|control|control|control (ssRNA)
# RNA: GGGAGUUCUACAGUCCGACGAUCGGUUGGGAAAAUUGAGGCCUGCCUGAGUGUGUGACUUGUGGCAAGUCACUCUGGUCAUCUAGGGCAGAGGCUCCCCAGAUCCCAGGCCUCCUGCCUCCAGUCCCCAGCCCGCAGCCCAGGCAACAGAGGAUUGAGCAUCA
# B17: chr1:45693489:45693605:+|CDS|ENSG00000159596|unk|total|mutant (ssRNA)
# RNA: GGGAGUUCUACAGUCCGACGAUCAAUCCCCUUCGUUGCUCCACCACUGGUCAUGCUGAUGACAAAAACUUAUAUUCCCAUAUCCGCUUUUACUCAGAUGGCUUAUGGAGCCAGUUUCCUAUCUUUCUUGGGUGGGAUCAGAUGCAACAGAGGAUUGAGCAUCA
# B18: chr1:37566712:37566813:+|3pUTR|ENSG00000163879|unk|total|mutant (ssRNA)
# RNA: GGGAGUUCUACAGUCCGACGAUCGCUUUAUUUCCCCCGCACUGGUGAAGGGCUUCAACUGUCAAACCUCAGAACAAAUGCAUCCGGGCCUCCGAAAUGUCAAUGGGGCAGGAAGAAAACACAAUUUCUAACUGCCUGUUUUUGCAACAGAGGAUUGAGCAUCA
# B19: chr1:150220393:150220494:-|3pUTR|ENSG00000143401|msi1_unk|total|mutant (ssRNA)
# RNA: GGGAGUUCUACAGUCCGACGAUCAUUGUAUGCCGAGAAAAAUUUUCAUUGACUCCCAUUGUGGAAUUCCCCCGCAAUUUAUUCCGACUUAAUUUUUUAAAUUCAAGCUUACUGUAUCCGUCAUUUUCCGCCCAUAAUUAAAACCAACAGAGGAUUGAGCAUCA
# B20: chr14:21351797:21351898:-|3pUTR|ENSG00000092201|msi1|total|mutant (ssRNA)
# RNA: GGGAGUUCUACAGUCCGACGAUCGAGGAAGGCUCAAAGGAGUCAACAUUUAUAUCUGGAAGGGACAAGUCAUGCCUUGGGCCCCGAAUACCCUGAUGAGAAAAGAGAAGAGGAAGGGAGGCCAUAUCUACAACACAGCCUCUCCAACAGAGGAUUGAGCAUCA
# B21: chr5:159157431:159157536:-|3pUTR|ENSG00000145860|unk|total|mutant (ssRNA)
# RNA: GGGAGUUCUACAGUCCGACGAUCCAAAAAGUGUUUUUCAGACCUCGGUAUUCCUAAUGUGGGAUGUGACUUUAUUUUAUUUUCCGCCGCAAAUUUGGAUGCCGACUGACAGACACCGCUGAAUGUCUUAAUAAAUUUAAAUUUCAACAGAGGAUUGAGCAUCA
# B22: ENSG00000198589:be:win_6451|CDS|ENSG00000198589|bound_else_gene|NA|bound_elsewhere_windowed (ssRNA)
# RNA: GGGAGUUCUACAGUCCGACGAUCGCUGUGAUGUUCAACUUCCCAGACCCUGCAACAGUAAAGAAAGUGGUUAACUAUCUACCUCGUGUUGGCGUUGGAACAAGUUUUGGAUUGCCUCAAACCAGACGUAUUUCAUUAGCUAGUCAACAGAGGAUUGAGCAUCA
# Target: T1, UNK ZnF1-6 (called full-length) (human, UniProt Q9C0B0 30-357)
# T1 sequence: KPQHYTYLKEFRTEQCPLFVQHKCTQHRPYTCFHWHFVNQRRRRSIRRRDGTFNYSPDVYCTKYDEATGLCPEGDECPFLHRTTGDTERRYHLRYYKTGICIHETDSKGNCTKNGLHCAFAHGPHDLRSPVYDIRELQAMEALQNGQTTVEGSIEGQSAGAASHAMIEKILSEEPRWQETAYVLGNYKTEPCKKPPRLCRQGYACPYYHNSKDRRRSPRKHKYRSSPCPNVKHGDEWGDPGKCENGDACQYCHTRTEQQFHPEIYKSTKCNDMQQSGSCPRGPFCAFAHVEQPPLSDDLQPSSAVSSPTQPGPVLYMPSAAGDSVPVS
# Assay: nsRBNS (natural sequence RNA bind-n-seq); RBNS binding buffer (assumed for nsRBNS): 25 mM Tris pH 7.5, 150 mM KCl, 3 mM MgCl2, 0.01% Triton X-100, 500 ug/ml BSA, 20 U/ml SUPERase-In, 4 C; UNK is unkempt and MSI1 is Musashi-1; names of the RNAs are library labels; protein concentration not given here; high values mean tight binding
row,Binder,binding signal
1,B1,2.72 enrichment R
2,B2,0.404 enrichment R
3,B3,0.494 enrichment R
4,B4,0.647 enrichment R
5,B5,0.518 enrichment R
6,B6,0.995 enrichment R
7,B7,12.6 enrichment R
8,B8,0.615 enrichment R
9,B9,0.438 enrichment R
10,B10,0.589 enrichment R
11,B11,0.829 enrichment R
12,B12,1.89 enrichment R
13,B13,0.599 enrichment R
14,B14,0.544 enrichment R
15,B15,0.338 enrichment R
16,B16,0.779 enrichment R
17,B17,0.584 enrichment R
18,B18,0.542 enrichment R
19,B19,2.56 enrichment R
20,B20,1.92 enrichment R
21,B21,0.813 enrichment R
22,B22,0.809 enrichment R
